Paper PMC6212790
This is one part of the list. At the low end of the ranking the order means little.

Target: T1, GST-Rok-C97-191 (UniProt O34857)
T1 sequence: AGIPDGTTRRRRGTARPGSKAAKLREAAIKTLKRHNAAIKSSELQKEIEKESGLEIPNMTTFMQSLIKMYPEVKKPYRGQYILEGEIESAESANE
Test: protein binding microarray;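 also: rank score from −0.5 (least bound) to 0.5 (best bound)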
Conditions: Rok is a gene silencer of Bacillus subtilis; high values mean tight binding; most listed sequences are background and not binding sites; double strand, one strand shown

Sequence	binding signal [E-score]
ATATAGCG	0.349
CCACTATA	0.219
CGGGGGTA	-0.207
TGAGAGCA	-0.0498
CACTGGAA	-0.137
ACTACTGG	0.307
GAGGAGCC	-0.367
ACGCCGCC	-0.236
CCTAATCC	0.0562
GACAAGTC	-0.138
AGCATCGC	-0.207
AGGAGTTA	0.0534
GAAACGAA	-0.0931
CAGGTAGC	0.0356
ACGTCAGA	-0.183
GTCGACTA	0.183
AAACGGGG	0.0334
AAACGCAT	-0.135
GCGTAGAC	-0.111
AAACTGTT	-0.043
CTGATTCC	-0.0703
ACCGGTCA	-0.0246
ACTTTGAC	-0.00718
GAATCGCC	0.00133
AACGTTAC	0.172

Sequence	binding signal [E-score]
CAGGAATA	-0.142
CTCCTAAA	-0.155
ACCTTTCC	-0.0629
GATGCTGA	-0.0939
CCACATCC	-0.109
CCGATTCA	-0.0672
AAAAATGG	0.056
GAAACTCA	0.0227
TCATATGA	0.14
CGATTACG	-0.191
CGGAGCGC	-0.13
AGGGCCGG	-0.227
ACAATACA	0.265
GTCTTAAA	-0.129
GATCTAAA	-0.144
CCCTCTTC	-0.271
ATTTCTCG	0.1
CTCGTATC	-0.195
AAAGTCTC	0.0451
GGAGGACC	-0.318
CAACGGTC	-0.177
ATTGGCTG	-0.0203
ACTCAAAG	-0.155
AGCCTCAT	-0.232
CAAACGTA	0.139

Sequence	binding signal [E-score]
GATGTCAA	-0.019
CACAACGG	-0.135
GAAGTTAA	0.271
GCCTATCC	-0.2
ATAGTCCC	-0.0996
ACTCTATA	0.116
ACTCAATG	0.0506
GTCAAGTA	0.157
CAATCAAA	0.122
GCAATCGC	-0.0952
GAGTTGCA	0.0131
CGCGACCA	-0.101
ATAACCGC	0.0139
AACTCTAA	0.104
CGTTACAC	0.00626
AGAGCATC	-0.149
ACAACGCC	-0.0741
AAAGGCGG	-0.354
CCCCTCAC	-0.217
ATTTCTTC	0.204
GAGAAACC	0.0183
GCCTCCAC	-0.204
AGCTGTCC	-0.127
ACGGAGAA	0.0456
CATGGAGC	-0.184

Sequence	binding signal [E-score]
CAGACAGG	-0.364
GCAGTATA	0.224
AGCCATGG	-0.182
CTCACCCC	-0.227
ACCCAGAC	-0.116
TCGAAAGA	-0.0344
CCTCTGGA	-0.0747
CTGAGCCA	-0.122
AAAAGCGA	0.0458
AAATGCTA	0.16
ATTACTGC	0.11
AAACATGT	-0.0426
GTGCCGCA	-0.207
AGCAAGCA	-0.0851
CAGAACGA	-0.287
ACGAGTCT	-0.122
AGCTACAC	0.169
ACCAATAT	0.171
ATTATGCA	0.152
CCTACTAC	0.343
ACTCAACA	0.0186
GAACCTAC	0.198
AGGACTGG	-0.103
AGCAGGCA	-0.115
AAGCTTCC	-0.107

Sequence	binding signal [E-score]
ACCGGGTG	-0.157
AGAGTCTA	-0.014
CGGAGTTC	-0.107
CATCGGGC	-0.213
ACCTTGAC	-0.189
CACAGTGA	-0.00873
TCTGAAAA	0.0191
GCAAGATA	-0.00813
GCCGGCGC	-0.364
TATTCGGA	-0.0696
GCCTGGTA	-0.149
CAGCTGAC	-0.176
AGAACGCG	-0.0267
ATGGCGGA	-0.251
AATGGTGT	-0.103
AAACGTCC	-0.268
GGGCCCCC	-0.359
CTCGGTCA	-0.0067
TACCCGCA	-0.0663
ACCGTTAC	0.033
AGGGCGCA	-0.196
ACTTGGTG	-0.174
AGATCTAC	0.315
AGCACAAT	0.156
ACAGAGGG	-0.104

Sequence	binding signal [E-score]
ATGAGTCA	0.00203
ACGGTCCT	-0.132
ATCCCACA	-0.0109
CACGGTAG	0.244
AGCGACCG	-0.293
GATGGCCA	0.0347
AGGGACTG	-0.198
CAGACCCG	-0.212
TCGGACGA	-0.145
GCTGCGGA	-0.137
AGGACGCG	-0.208
AGTTTGAT	0.106
TACTTACA	0.31
GAACCCCC	-0.385
GTCGCCCA	-0.154
ACTCGGCG	-0.0249
TCGGTAAA	0.173
CCACGGTA	0.119
CAACCTAC	0.263
ATAGGTTG	0.0517
CAGTGTCC	-0.11
AGGTAGTA	0.328
AGTCTTCA	0.027
CACGGGCC	-0.12
CCGGGTAC	-0.0882

Sequence	binding signal [E-score]
CAGCGTCG	-0.222
TAGTGGGA	0.119
CTGGAGAA	-0.0846
GCTATTTA	0.153
TCCAGGAA	-0.1
ACTAGGGC	-0.143
GACGGGCC	-0.213
CTGACGCA	-0.195
GTACAGAC	-0.0134
GTGAGACA	-0.0895
GGCTTAGA	-0.132
CATATCAA	0.0654
CGGGAAAA	-0.11
CATCCAAA	-0.0954
AGGCCTTG	-0.272
ATTAACTC	0.124
GTACTACA	0.296
CCGACCGC	-0.188
ATTTGAAA	0.0658
GGAATCGA	0.209
ATCGCTAG	0.0794
AACAGTAG	0.362
AATCACTA	0.00836
ATCTCACC	-0.0238
CCAAGCGC	-0.127

Sequence	binding signal [E-score]
CTTTTTCC	-0.109
GAATCCAA	-0.125
CTACCCCA	0.211
CCCAGGCG	-0.297
AAACATTA	0.152
AGCCAAGC	0.0344
GCGACTTA	-0.0121
CAAGCGCG	-0.21
TTAGTGAA	0.221
CGGTACTC	0.0561
CAGCCCGA	-0.252
ATAGGGAT	0.158
AGACGTGC	-0.045
CTGTGGGA	-0.0971
TGATGGCA	-0.158
CTGCCAGA	-0.124
ACGACAAC	0.0475
GCTCTTTA	-0.0791
ACGGGATC	-0.0509
GCCCTACA	-0.125
ATTTCACG	0.1
CACATGGG	-0.0676
AGGTCTTG	-0.0853
CGTGGTCC	-0.232
GATACGCA	0.0668

Sequence	binding signal [E-score]
AATTTCAC	0.195
ACGCAGCC	-0.29
GCTTGTAC	-0.118
AACGAGGC	-0.123
ATCGGCTG	0.0324
CAGTAGCG	0.213
GAGGCATC	-0.112
ATCGTGGA	-0.0661
GGATACCA	-0.00728
AAGCAGCC	-0.116
AAACTCGT	0.0896
ATGCGAGG	-0.0618
AATCACAG	-0.0588
GGATGGAA	-0.0273
TTGCGAAA	-0.0399
AAAGTTCA	0.138
ACCTAATA	0.195
AAGTTACC	0.239
CCAGTCGA	-0.212
AAAAAAAC	0.18
ATAGCCTC	-0.247
CATCATAG	0.00873
ACGCTAGG	-0.0315
CAGTACAG	0.0142
TCTGCTCA	-0.0793

Sequence	binding signal [E-score]
GGATAACA	0.104
ACCCTCGC	-0.152
ATTGGCTC	-0.119
CGTCTTGA	-0.187
ATACAAAA	0.276
ACTCTACG	0.0656
GCGAGGCA	-0.22
CTTCAAAA	-0.0258
ATTTTTCG	0.181
CACCACGG	-0.0502
AATATCTC	0.28
ACCATTTA	0.243
GATTTTAA	0.145
CGTCTCAC	-0.218
AAATCACA	0.0755
AAGTGGAT	-0.0622
TAAAAATA	0.351
GGAAACAA	0.0324
AACCGAGA	-0.0407
AATCCCAA	0.0892
AACTGCCG	0.0492
CGAAATCA	0.0596
CCCAACAA	-0.0671
CGTAGAAA	0.338
AATAGTTG	0.283

Sequence	binding signal [E-score]
CTTTTGCA	-0.053
GAGTTAGA	0.246
AGGCACTG	-0.0549
ACATTTAA	0.127
GTTCTGAA	-0.0197
CACGATGG	-0.148
AGCTGACA	-0.204
CAGAATAA	0.0544
CGGGCACC	-0.305
CCGGGTTA	-0.0338
CACGTATG	-0.166
CTTATTTA	0.184
CCGCTGCA	-0.252
TCACAGGA	-0.000848
GTCTGAAC	-0.11
ATAGGCTA	0.138
CGTCGGAG	-0.178
AGTGCCAC	-0.221
CCCGCAAC	-0.266
ACAGAATC	0.0493
AAGAACTG	-0.0469
ACGTCATG	-0.125
AATCGACT	-0.0305
GGATCGAA	-0.0989
TAAGCAAA	0.201

Sequence	binding signal [E-score]
AGGACTTA	-0.0949
AGATGCCA	-0.00455
AGTTAATA	0.315
CTCGCTGC	-0.118
TAACCGAA	0.0668
TCAGCAGA	-0.179
CCATAGAG	-0.22
CATCACGA	-0.0827
AAATTCGA	0.119
CTAGCGGC	-0.00808
AATATGTA	0.375
GCGTGGTA	0.0694
ACACCTGT	-0.0272
GCTCGTAC	0.0903
AAAGAGGA	-0.0716
ATTTGAGA	0.0906
GCTCTAAA	-0.0612
AAATATGC	0.165
GAGTACCC	-0.135
GCCTAAGA	0.00752
CCTTTCCC	-0.189
AGTGGTTG	-0.0564
CAACCCCA	-0.279
AATCCTCA	-0.0299
GGAACGAC	-0.0248

Sequence	binding signal [E-score]
CAATTGGA	-0.069
GCGGCCGC	-0.348
ATGCTCTA	-0.139
ACCCGCGC	-0.254
ACAAAGCC	0.0136
GTGTTCAA	-0.207
ATAGATAT	0.415
CAGTAACC	-0.00999
AAATCATG	-0.0916
ACTTACCT	0.127
AATCTACC	0.447
CACTATGG	0.113
CGTCGTGC	-0.178
GGCTAATA	-0.0399
GTTGGCTA	0.0528
CGTTAAAG	-0.0116
CGAGGCCC	-0.334
CGACATGC	-0.104
ACAACGAC	0.0495
GACTAACC	0.0497
ATGAGGAG	-0.136
CCAGCTTA	-0.119
AATGTCTA	0.185
ACCTAGAG	-0.0396
CCAGACTA	0.0562

Sequence	binding signal [E-score]
ACGAGACG	-0.0624
ACGCATAG	-0.151
AGCCTCTG	-0.166
AGAAGGCC	-0.352
CTACCCGC	-0.0513
CGACGGCC	-0.129
CGGTGTTA	0.173
ACTGGGTC	-0.076
AGCAGCTA	-0.042
AGATGGGC	-0.199
TACGGCGA	-0.0698
GCGTCGCC	-0.254
CGTATCCA	-0.0617
AAATTACT	0.358
CAGCTACC	-0.0164
CAGCACCG	-0.136
ACGACTAA	0.0491
AACCCGGA	-0.0325
GCGCCGTA	-0.0818
